ChEMBL document CHEMBL4888484, “Replenishing the malaria drug discovery pipeline: Screening and hit evaluation of the MMV Hit Generation Library 1 (HGL1) against asexual blood stage Plasmodium falciparum ,using a nano luciferase reporter read-out” (2022)
The whole screen tested about 150,000 compounds, of which about 540 (0.36%) showed an effect of 50% or more. The list shows a part of the results.

These compounds were tested on Plasmodium falciparum (assay: Primary screen in NF54 nanoGlo assay, in single point, at 2uM, 72h; a lower Z score goes with more inhibition). Details: timepoint 72 hour.
Assay type: functional, Erythrocyte

Row | Compound | % Inhibition [%] | Z score
1 | O=C(CCc1nc(C2CC2)no1)N1CCCC1CC1CC2CCC1C2 (stereo not given) | -17 | 2.42
2 | CN(Cc1ccccc1)c1cccc(-n2ccnc2)n1 | 7 | -1.57
3 | Cc1ccc(-n2nc(C)c(S(=O)(=O)c3ccccc3)c2OC(=O)C(C)(C)C)c(C)c1 | -12 | 1.95
4 | CO[C@H]1CCC12CCN(S(=O)(=O)c1cccnc1)CC2 | 6 | -1.14
5 | CCOc1nnc(CNCCn2cccn2)s1 | -4 | 0.4
6 | CC[C@@H](CO)NCc1c(C)cc(OC)nc1C | 16 | -1.64
7 | c1ccc(-n2nc(C3CC3)nc2[C@@H]2COc3ccccc3O2)nc1 | -13 | 1.51
8 | CCCc1nnc(NC(=O)Cc2cccc3ccccc23)s1 | 26 | -2.91
9 | CC(C)(C)c1nsc(NC(=O)NC2CCN(Cc3ccccc3)CC2)n1 | -14 | 1.46
10 | N#Cc1cccc(C(=O)N2CCC[C@H](Oc3cccnn3)C2)c1 | -4 | 0.47
11 | c1cncc(CNc2cc(-c3cnc4nn[nH]c4c3)c3cc[nH]c3n2)c1 | -3 | 0.58
12 | NC(=O)C[C@H]1COCCN1C(=O)c1onc2c1CCCC2 | -5 | 0.89
13 | COc1ccc(CN2CCOC[C@@H]2C)nc1 | -3 | 0.47
14 | COC(=O)[C@@H](O)C1CCN(Cc2ccc3ccccc3n2)CC1 | -11 | 0.92
15 | CCCc1nc(CN[C@H]2CCN(C(=O)OCC)C2)cs1 | -7 | 1.19
16 | O=C(COc1ccccc1)Nc1ccc(S(=O)(=O)N2CCc3ccccc32)cc1 | -5 | 0.65
17 | CC(C)n1nnnc1Cn1cnn(C(C)(C)C)c1=O | -16 | 1.41
18 | Cc1noc2ncc(NC(=O)Cc3cccnc3)cc12 | 14 | -1.96
19 | Cn1nccc1C(=O)N(C1CCCCC1)C1CCCCC1 | 40 | -5.35
20 | CN(C)[C@@H](C(=O)NCC1=CCCCC1)c1ccc2c(c1)OCO2 | 9 | -1.22
21 | O=S(=O)(C[C@H]1CCCO1)Nc1cccc(Cl)c1F | 8 | -1.54
22 | O=c1ccc(F)cn1CCC1OCCO1 | -7 | 1.25
23 | CC(C)(CNC(=O)[C@H]1CCn2cncc2C1)C1CCCCC1 | 1 | -0.09
24 | Cc1ncc(NC(=O)c2scnc2C)c(C2CC2)n1 | -18 | 1.78
25 | O=C([C@@H]1Cn2cccc2C(=O)N1Cc1cccnc1)N1CCN(c2ncccn2)CC1 | -2 | 0.26
26 | COc1cccc(CCC(=O)N[C@H]2CNCCC2(F)F)c1F | -4 | 0.81
27 | Cc1c(Cl)cccc1NC(=O)CCn1c(=O)cc(C(F)(F)F)c2cn(C(C)C)nc21 | 33 | -3.73
28 | CCCOC[C@H]1CCN(CC(=O)N2CCCCC2)C1 | -6 | 0.67

Row | Compound | % Inhibition [%] | Z score
29 | CCCCN(CC(N)=O)C(=O)c1ccc(C(F)(F)F)nc1 | -8 | 1.28
30 | CCOCCO[C@H]1CCN(C(=O)c2cnccn2)C1 | 7 | -1.33
31 | CN1Cc2ccc(NC(=O)C(=O)Nc3ccc(C#N)cc3)cc2C1 | -24 | 2.14
32 | Cc1ncc2c(c1-c1nc(-c3ccc(F)cc3)cs1)CCC2 | -3 | 0.43
33 | Cc1ccc(NS(=O)(=O)c2c(C)[nH]c(C)c2-c2nc(C3CC3)no2)c(Cl)c1 | -14 | 2.7
34 | COc1ccc(-c2ccc(C(=O)NC3CC3)o2)c(C)c1 | -17 | 1.79
35 | c1ccc(CN2CCC(Nc3ncnc4c3cnn4-c3ccccc3)CC2)cc1 | -5 | 0.99
36 | Nc1c2c(-c3ccc(F)cc3)nc(N3CCN(c4ccc(Cl)c(Cl)c4)CC3)nc2nn1-c1ccc(Cl)cc1 | -4 | 0.51
37 | COc1ccc(NC(=O)c2ccc3nc(-c4ccccc4)cn3c2)cc1 | 0 | 0.04
38 | O=C1N=Nc2c3ccccc3c(O)c3c(N4CCCCC4)ccc1c23 | -11 | 1.2
39 | CCN(CC)CCN(C)C(=O)CC(=O)Nc1ccc(C)cc1C | 2 | -0.29
40 | COc1cc(N2CCO[C@H](C(=O)N(C)C)C2)nc(N)n1 | -15 | 2.24
41 | COC[C@H]1CCCCN1C(=O)c1coc(COc2ccccc2)n1 | -1 | 0.21
42 | CC(F)(F)c1ccc(CNC[C@H](O)c2ccc(F)cn2)cc1 | -14 | 2.42
43 | Cc1ccc(C)c(-c2cc3c(=O)n(Cc4nc(-c5ccccc5)no4)ncn3n2)c1 | -12 | 1.51
44 | Cc1noc(CCNC(=O)N2CC=C(c3c(C)[nH]c4ccccc34)CC2)n1 | 3 | -0.49
45 | Cc1ccccc1C1CN(C(=O)C(C)C)CC1C(=O)NCCC(C)C (stereo not given) | -6 | 1.04
46 | COCc1noc([C@@H]2CN(Cc3ccc(C#N)cc3)C[C@H]2COC)n1 | -11 | 1.88
47 | CCNc1ncc(CN2CCC(Oc3ccccc3)(C(=O)O)CC2)cn1 | -8 | 0.99
48 | Cc1nc(CNC(=O)COc2c(C)cccc2C)cs1 | -9 | 1.5
49 | CC(C)N1C(=O)CN(C(=O)c2ccc(OC(F)F)nc2)CC1(C)C | -11 | 2.04
50 | COc1ccccc1CN(Cc1nc2ccccc2n1C)C1CC1 | 3 | -0.58
51 | C[C@H]1CCc2n[nH]c(C(=O)NC3(c4ncccn4)CCOCC3)c2C1 | 2 | -0.37
52 | O=C(c1ccc(-c2noc(C(F)(F)F)n2)cc1)N1CC[C@@](O)(C(F)(F)F)C1 | -12 | 1.64
53 | CCC(=O)N1CCc2ccc(OC(CC)C(=O)NC3CC3)cc2C1c1cccc(F)c1 (stereo not given) | -16 | 1.59
54 | Cc1cccc(S(=O)(=O)N[C@H](C(=O)O)C(C)C)c1F | -12 | 1.57
55 | CCS(=O)(=O)N1CCCc2cc(C(=O)NCCc3ccccc3)ccc21 | -6 | 0.86
